Test results taken from PMC9911399, “Two distinct binding modes provide the RNA-binding protein RbFox with extraordinary sequence specificity”.
Substitutions are numbered along the chain they refer to; changes in the protein carry UniProt numbers. This is one part of the list.

T1: RBFOX1 RRM (Homo sapiens, UniProt Q9NWB1 109-208)
T1 sequence: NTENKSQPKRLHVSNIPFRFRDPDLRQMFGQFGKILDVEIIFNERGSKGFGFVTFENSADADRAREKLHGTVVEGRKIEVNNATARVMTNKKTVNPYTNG

B1: GGAGCCG (DNA:RNA)
RNA: GGGAGACCGGAAUUCAGAUUGUCCGGAGCCGUUAAAUCCCGUCGUAGCCACCA
DNA 1: CAATCTGAATTCCGGTCTCCC
DNA 2: TGGTGGCTACGACGGGATT
B2: UGAAUCU (DNA:RNA)
RNA: B1 RNA with G25U, G28A, C29U, G31U
DNA 1: CAATCTGAATTCCGGTCTCCC
DNA 2: TGGTGGCTACGACGGGATT
B3: UUCGUAG (DNA:RNA)
RNA: B1 RNA with G25U, G26U, A27C, C29U, C30A
DNA 1: CAATCTGAATTCCGGTCTCCC
DNA 2: TGGTGGCTACGACGGGATT
B4: AACGGUG (DNA:RNA)
RNA: B1 RNA with G25A, G26A, A27C, C29G, C30U
DNA 1: CAATCTGAATTCCGGTCTCCC
DNA 2: TGGTGGCTACGACGGGATT
B5: CAUCGAC (DNA:RNA)
RNA: GGGAGACCGGAAUUCAGAUUGUCCCAUCGACUUAAAUCCCGUCGUAGCCACCA
DNA 1: CAATCTGAATTCCGGTCTCCC
DNA 2: TGGTGGCTACGACGGGATT
B6: CAGUAUA (DNA:RNA)
RNA: B5 RNA with U27G, C28U, G29A, A30U, C31A
DNA 1: CAATCTGAATTCCGGTCTCCC
DNA 2: TGGTGGCTACGACGGGATT
B7: CAGGAUU (DNA:RNA)
RNA: B5 RNA with U27G, C28G, G29A, A30U, C31U
DNA 1: CAATCTGAATTCCGGTCTCCC
DNA 2: TGGTGGCTACGACGGGATT
B8: UUAAGAG (DNA:RNA)
RNA: B5 RNA with C25U, A26U, U27A, C28A, C31G
DNA 1: CAATCTGAATTCCGGTCTCCC
DNA 2: TGGTGGCTACGACGGGATT
B9: AAGCUAG (DNA:RNA)
RNA: B5 RNA with C25A, U27G, G29U, C31G
DNA 1: CAATCTGAATTCCGGTCTCCC
DNA 2: TGGTGGCTACGACGGGATT
B10: AGUACCA (DNA:RNA)
RNA: B1 RNA with G25A, A27U, G28A, G31A
DNA 1: CAATCTGAATTCCGGTCTCCC
DNA 2: TGGTGGCTACGACGGGATT
B11: CGCGACA (DNA:RNA)
RNA: B1 RNA with G25C, A27C, C29A, G31A
DNA 1: CAATCTGAATTCCGGTCTCCC
DNA 2: TGGTGGCTACGACGGGATT
B12: GUGCGUC (DNA:RNA)
RNA: B5 RNA with C25G, A26U, U27G, A30U
DNA 1: CAATCTGAATTCCGGTCTCCC
DNA 2: TGGTGGCTACGACGGGATT
B13: UGUCUGA (DNA:RNA)
RNA: B5 RNA with C25U, A26G, G29U, A30G, C31A
DNA 1: CAATCTGAATTCCGGTCTCCC
DNA 2: TGGTGGCTACGACGGGATT
B14: AUAGGAU (DNA:RNA)
RNA: B5 RNA with C25A, A26U, U27A, C28G, C31U
DNA 1: CAATCTGAATTCCGGTCTCCC
DNA 2: TGGTGGCTACGACGGGATT
B15: CAUCCAA (DNA:RNA)
RNA: B5 RNA with G29C, C31A
DNA 1: CAATCTGAATTCCGGTCTCCC
DNA 2: TGGTGGCTACGACGGGATT
B16: CAAACGG (DNA:RNA)
RNA: B1 RNA with G25C, G26A, G28A, C30G
DNA 1: CAATCTGAATTCCGGTCTCCC
DNA 2: TGGTGGCTACGACGGGATT
B17: GGGAGCU (DNA:RNA)
RNA: B1 RNA with A27G, G28A, C29G, G31U
DNA 1: CAATCTGAATTCCGGTCTCCC
DNA 2: TGGTGGCTACGACGGGATT
B18: GUCAGCA (DNA:RNA)
RNA: B1 RNA with G26U, A27C, G28A, C29G, G31A
DNA 1: CAATCTGAATTCCGGTCTCCC
DNA 2: TGGTGGCTACGACGGGATT
B19: CGUUAGG (DNA:RNA)
RNA: B5 RNA with A26G, C28U, G29A, A30G, C31G
DNA 1: CAATCTGAATTCCGGTCTCCC
DNA 2: TGGTGGCTACGACGGGATT
B20: CGGCGCA (DNA:RNA)
RNA: B5 RNA with A26G, U27G, A30C, C31A
DNA 1: CAATCTGAATTCCGGTCTCCC
DNA 2: TGGTGGCTACGACGGGATT
B21: AUCCGUU (DNA:RNA)
RNA: B5 RNA with C25A, A26U, U27C, A30U, C31U
DNA 1: CAATCTGAATTCCGGTCTCCC
DNA 2: TGGTGGCTACGACGGGATT
B22: GAUUCGC (DNA:RNA)
RNA: B5 RNA with C25G, C28U, G29C, A30G
DNA 1: CAATCTGAATTCCGGTCTCCC
DNA 2: TGGTGGCTACGACGGGATT
B23: GCGGCAU (DNA:RNA)
RNA: B1 RNA with G26C, A27G, C30A, G31U
DNA 1: CAATCTGAATTCCGGTCTCCC
DNA 2: TGGTGGCTACGACGGGATT
B24: AGAGAAG (DNA:RNA)
RNA: B1 RNA with G25A, C29A, C30A
DNA 1: CAATCTGAATTCCGGTCTCCC
DNA 2: TGGTGGCTACGACGGGATT
B25: UUAUUUG (DNA:RNA)
RNA: B1 RNA with G25U, G26U, G28U, C29U, C30U
DNA 1: CAATCTGAATTCCGGTCTCCC
DNA 2: TGGTGGCTACGACGGGATT
B26: GGGGGUG (DNA:RNA)
RNA: B1 RNA with A27G, C29G, C30U
DNA 1: CAATCTGAATTCCGGTCTCCC
DNA 2: TGGTGGCTACGACGGGATT
B27: UGGUUCC (DNA:RNA)
RNA: B1 RNA with G25U, A27G, G28U, C29U, G31C
DNA 1: CAATCTGAATTCCGGTCTCCC
DNA 2: TGGTGGCTACGACGGGATT
B28: UGCGGCA (DNA:RNA)
RNA: B1 RNA with G25U, A27C, C29G, G31A
DNA 1: CAATCTGAATTCCGGTCTCCC
DNA 2: TGGTGGCTACGACGGGATT
B29: GUGAGUC (DNA:RNA)
RNA: B5 RNA with C25G, A26U, U27G, C28A, A30U
DNA 1: CAATCTGAATTCCGGTCTCCC
DNA 2: TGGTGGCTACGACGGGATT
B30: GAAAUGA (DNA:RNA)
RNA: B1 RNA with G26A, G28A, C29U, C30G, G31A
DNA 1: CAATCTGAATTCCGGTCTCCC
DNA 2: TGGTGGCTACGACGGGATT
B31: GAGGGCG (DNA:RNA)
RNA: B1 RNA with G26A, A27G, C29G
DNA 1: CAATCTGAATTCCGGTCTCCC
DNA 2: TGGTGGCTACGACGGGATT

Biological target: T1, RBFOX1 RRM
Assay: EMSA; HiTS-Eq, 1 nM pool, 10 min; buffer printed only for the single-RNA assays: 10 mM Tris pH 7.5, 150 mM NaCl, 3.4 mM EDTA, 0.001% NP-40, 30 C
Details: tags: His6 N-terminal (pET28a); label: 5' 32P
Outline: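 Purified RbFox RRM, wild type or mutant, was incubated for 10 min in 50 µL with 1 nM of a 5′-radiolabelled RNA pool carrying 7 randomized nucleotides, whose flanks were annealed to DNA oligonucleotides, over a series of increasing protein concentrations. Unbound RNA was resolved on 8% native PAGE, cut out, reverse-transcribed, barcoded by PCR and sequenced on an Illumina HiSeq 2500. Relative association constants were derived from changes in read counts for each RNA species versus the control reaction and normalised to the cognate motif.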

Binder | binding signal
B1 | 0.0162 KA relative to UGCAUGU
B2 | 0.014 KA relative to UGCAUGU
B3 | 0.0136 KA relative to UGCAUGU
B4 | 0.0116 KA relative to UGCAUGU
B5 | 0.00513 KA relative to UGCAUGU
B6 | 0.00141 KA relative to UGCAUGU
B7 | 0.0118 KA relative to UGCAUGU
B8 | 0.0159 KA relative to UGCAUGU
B9 | 0.0116 KA relative to UGCAUGU
B10 | 0.00585 KA relative to UGCAUGU
B11 | 0.00694 KA relative to UGCAUGU
B12 | 0.0205 KA relative to UGCAUGU
B13 | 0.0256 KA relative to UGCAUGU
B14 | 0.00437 KA relative to UGCAUGU
B15 | 0.000478 KA relative to UGCAUGU
B16 | 0.00338 KA relative to UGCAUGU

Binder | binding signal
B17 | 0.035 KA relative to UGCAUGU
B18 | 0.0129 KA relative to UGCAUGU
B19 | 0.0105 KA relative to UGCAUGU
B20 | 0.0121 KA relative to UGCAUGU
B21 | 0.00347 KA relative to UGCAUGU
B22 | 0.0154 KA relative to UGCAUGU
B23 | 0.0242 KA relative to UGCAUGU
B24 | 0.00984 KA relative to UGCAUGU
B25 | 0.0189 KA relative to UGCAUGU
B26 | 0.0397 KA relative to UGCAUGU
B27 | 0.0214 KA relative to UGCAUGU
B28 | 0.0296 KA relative to UGCAUGU
B29 | 0.0134 KA relative to UGCAUGU
B30 | 0.0134 KA relative to UGCAUGU
B31 | 0.0175 KA relative to UGCAUGU
